# Whole data set: some 33,000 sequences, median “E-score (-0.5 to 0.5)” near -0.021, cut for the highest 2% near 0.32. The list shows a part of the results.
# Target: T1, Zap1 (UniProt P47043)
# T1 sequence: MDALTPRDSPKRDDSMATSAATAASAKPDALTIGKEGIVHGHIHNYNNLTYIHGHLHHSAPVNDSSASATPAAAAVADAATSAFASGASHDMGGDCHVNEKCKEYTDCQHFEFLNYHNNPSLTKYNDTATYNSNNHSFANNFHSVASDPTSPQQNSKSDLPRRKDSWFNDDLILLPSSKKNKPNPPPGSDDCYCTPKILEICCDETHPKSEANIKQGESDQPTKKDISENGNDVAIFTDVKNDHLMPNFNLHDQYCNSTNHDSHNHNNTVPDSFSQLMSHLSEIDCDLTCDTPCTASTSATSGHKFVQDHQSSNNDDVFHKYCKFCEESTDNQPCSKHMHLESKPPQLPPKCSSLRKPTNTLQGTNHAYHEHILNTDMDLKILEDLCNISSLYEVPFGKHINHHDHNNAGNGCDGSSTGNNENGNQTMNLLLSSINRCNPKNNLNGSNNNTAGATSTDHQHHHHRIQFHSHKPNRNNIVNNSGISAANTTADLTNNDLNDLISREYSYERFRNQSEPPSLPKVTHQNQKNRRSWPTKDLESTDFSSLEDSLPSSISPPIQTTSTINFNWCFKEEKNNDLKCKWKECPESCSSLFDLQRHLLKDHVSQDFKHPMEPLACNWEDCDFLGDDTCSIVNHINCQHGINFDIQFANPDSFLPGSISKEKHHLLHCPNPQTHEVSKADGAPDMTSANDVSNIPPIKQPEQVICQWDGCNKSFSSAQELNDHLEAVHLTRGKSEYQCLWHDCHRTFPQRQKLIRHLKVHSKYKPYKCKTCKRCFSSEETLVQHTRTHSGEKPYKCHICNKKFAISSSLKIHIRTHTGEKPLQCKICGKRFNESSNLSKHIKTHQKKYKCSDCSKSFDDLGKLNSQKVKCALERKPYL
# Test: PBM E-score (8-mer binding enrichment) (E-score (-0.5 to 0.5)); higher = stronger / more preferred TF binding; most listed sequences are background and not binding sites
# Settings: protein concentration: 200 nM; construct: GST-full length
# Procedure, shortened: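 Yeast transcription factors carrying a GST tag, as full-length proteins or DNA-binding domains, were produced by PURExpress in vitro transcription/translation. About 100-200 nM protein was applied to universal all-10-mer Agilent arrays, double-stranded by primer extension on fresh or once-stripped slides. Bound protein was detected with fluorescent anti-GST, and scans were normalised with masliner. The Universal PBM Analysis Suite gave each ungapped eight-base word, pooled with its reverse complement, an E-score, a modified Wilcoxon-Mann-Whitney statistic.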
row,Sequence,PBM E-score
1,CAGGGGAA,-0.0896
2,CGTTCGCC,-0.204
3,CGTAAGGC,-0.187
4,ACTTGTAG,-0.0628
5,GACTTAGC,-0.317
6,ACAGTGCC,-0.156
7,ACCTCGGC,0.265
8,GAAAATTC,-0.0176
9,TCCTCGAA,0.0949
10,ATCCGCAC,0.0827
11,CACAATCA,-0.121
12,GGATACAC,-0.101
13,ATCTTGCC,0.0296
14,AGACGCAT,-0.172
15,CCATAAAG,0.277
16,ACTGACTG,-0.214
17,TAATACTA,0.252
18,AACGGACA,0.0583
19,CCTAATGC,0.0581
20,ACGGAGCC,-0.228
21,AGGCGTAC,-0.179
22,ATCTAAAA,0.066
23,CTGATAAC,0.22
24,AATTTTTC,0.0448
25,CGCACTCC,-0.231

row,Sequence,PBM E-score
1,ACCCGAAT,0.254
2,ATTATGCC,0.0789
3,AGCTACCC,0.268
4,CAGACATG,-0.22
5,CGACCGTC,-0.143
6,ACAACCGA,0.234
7,AATTCACT,-0.00481
8,AGCGCGCG,0.126
9,AAACCTCG,0.119
10,ACAGTCCT,0.0137
11,ATTGAAGA,-0.0628
12,ATCCTCAC,0.0272
13,AGTGAGAA,0.0644
14,AGTACCAT,0.127
15,GCTCGCTA,-0.269
16,ATAGGAGG,-0.248
17,TGGAATAA,0.148
18,CGGTATCC,0.107
19,ACCACACT,0.0936
20,TTACCCAA,0.263
21,ATAAATAT,0.158
22,CTGAGGGC,-0.236
23,TAGTGCGA,0.0523
24,CCCTCGCG,0.188
25,TAGCTTGA,-0.16

row,Sequence,PBM E-score
1,ATAATTGA,0.152
2,GACGAAGA,-0.139
3,ATCCCTCC,-0.146
4,CGTGTAAC,0.119
5,TCGCACCA,-0.0796
6,GAGATTAC,-0.001
7,CGCACGGA,-0.0935
8,CGGTCGCC,-0.129
9,CTACACCC,0.163
10,GCGGCCAC,0.104
11,ATGAATGG,0.203
12,CGCAATTC,-0.0164
13,ACGCGTAA,0.0956
14,AGGCTCAA,-0.361
15,ACCCGGAT,0.0925
16,CGGACCAG,0.0216
17,ACACGGCG,-0.0492
18,CAAAGCGC,-0.0526
19,ATCCCGCC,-0.019
20,ACCACAGG,0.0993
21,GGCTATAA,0.0601
22,AGATAGAT,-0.134
23,ATCTCACG,-0.234
24,ATCCTTAG,-0.192
25,AACCTCAT,0.248

row,Sequence,PBM E-score
1,GCAACAGA,-0.0265
2,GTATACGA,-0.0741
3,AATGAACA,0.151
4,CAAAAGGC,0.142
5,TTAAACAA,0.164
6,CATCCGGG,0.146
7,CATTTTCC,0.0529
8,GGCACGCC,-0.288
9,ATGTATAC,-0.033
10,CATTGATC,0.0776
11,GAACTTTA,-0.025
12,GACGAGCC,-0.127
13,CGGGCCTA,-0.0887
14,CGGCCACA,0.103
15,GCATGCTA,-0.0627
16,ACGACCCA,0.2
17,AACCGCAA,0.277
18,GTCTCTAA,0.0193
19,ACACAGTC,0.033
20,CCGTCTAG,-0.147
21,CCAAAGCC,-0.202
22,CTTTCTCC,-0.0469
23,CTAATCAC,0.157
24,CTGATGCC,-0.222
25,ACTACATA,0.113

row,Sequence,PBM E-score
1,GCCCTAAC,0.111
2,AAGGACTG,-0.056
3,GTTCCCGA,-0.0317
4,TAGCTATA,-0.0625
5,CTCATGGC,0.00095
6,CTCACCAA,0.123
7,ACGTGCGA,-0.245
8,ATGGAATC,0.00834
9,CAGCACCC,0.0359
10,GCTGGCAC,-0.281
11,ATTTGTCC,-0.0674
12,ATCAAGAG,0.121
13,ATTGGACC,-0.0136
14,CCTCAGCC,-0.157
15,GGTCAACC,0.2
16,GAGAGCAA,-0.227
17,AGCTTTAA,0.137
18,GAATCGTA,-0.134
19,GCTAAACC,-0.0728
20,AGATTACA,-0.0848
21,ACTAAGAC,0.0511
22,GTTCGCGA,0.0574
23,GAGCCGCC,-0.132
24,CTGTCCCA,-0.231
25,CTCGTCAA,-0.253

row,Sequence,PBM E-score
1,ACCGAGAC,-0.0569
2,AGTTATAC,0.104
3,GCATGTCA,-0.201
4,CGTCGAAA,0.0714
5,GCTTCAAC,0.00654
6,GGCCGAAC,0.0464
7,CCCTCCGG,0.168
8,AAATAACC,0.42
9,AATTTTGG,0.155
10,CCAAAGAG,0.101
11,TCGTATAA,0.0885
12,GAGGTGAA,0.0856
13,ACGAGTAC,-0.0623
14,CAACCGTG,0.129
15,CCCACATC,-0.0026
16,AGAGGAGG,-0.176
17,CACGCCCA,-0.0496
18,AAGGAATA,0.113
19,CGGCGGGA,-0.176
20,ATACGCCA,-0.166
21,ACATCTCT,-0.146
22,AACATTTG,-0.122
23,CTAGCTTC,-0.267
24,AGTCGTCA,-0.0746
25,AAAACGCG,0.0266

row,Sequence,PBM E-score
1,GGCAAAAA,0.14
2,TGGCCAAA,-0.0636
3,ACCACCTC,0.112
4,CCCTACAA,0.33
5,GGAGGGTA,0.346
6,CGCCAGTA,-0.316
7,AAGGTCCG,0.0328
8,GATCGTAC,-0.069
9,GATTCGCC,-0.195
10,CAGTTTCC,-0.042
11,AAGCAGGT,0.191
12,CGGCATCC,-0.101
13,ACCGGAGC,-0.0867
14,CGAATACG,-0.0272
15,CAACCTCG,0.286
16,TAGAGGGA,-0.119
17,CGTATACC,0.0534
18,CTGTAAAC,0.16
19,ACCTCCCT,-0.0563
20,CTTCCCTC,-0.107
21,ACGCCACA,-0.155
22,AATCCCGC,-0.00031

# — the supplement of paper PMC3334620
